B1: UHRF1, Q96T88 (protein)
chain: MWIQVRTMDGRQTHTVDSLSRLTKVEELRRKIQELFHVEPGLQRLFYRGKQMEDGHTLFDYEVRLNDTIQLLVRQSLVLPHSTKERDSELSDTDSGCCLGQSESDKSSTHGEAAAETDSRPADEDMWDETELGLYKVNEYVDARDTNMGAWFEAQVVRVTRKAPSRDEPCSSTSRPALEEDVIYHVKYDDYPENGVVQMNSRDVRARARTIIKWQDLEVGQVVMLNYNPDNPKERGFWYDAEISRKRETRTARELYANVVLGDDSLNDCRIIFVDEVFKIERPGEGSPMVDNPMRRKSGPSCKHCKDDVNRLCRVCACHLCGGRQDPDKQLMCDECDMAFHIYCLDPPLSSVPSEDEWYCPECRNDASEVVLAGERLRESKKKAKMASATSSSQRDWGKGMACVGRTKECTIVPSNHYGPIPGIPVGTMWRFRVQVSESGVHRPHVAGIHGRSNDGAYSLVLAGGYEDDVDHGNFFTYTGSGGRDLSGNKRTAEQSCDQKLTNTNRALALNCFAPINDQEGAEAKDWRSGKPVRVVRNVKGGKNSKYAPAEGNRYDGIYKVVKYWPEKGKSGFLVWRYLLRRDDDEPGPWTKEGKDRIKKLGLTMQYPEGYLEALANREREKENSKREEEEQQEGGFASPRTGKGKWKRKSAGGGPSRAGSPRRTSKKTKVEPYSLTAQQSSLIREDKSNAKLWNEVLASLKDRPASGSPFQLFLSKVEETFQCICCQELVFRPITTVCQHNVCKDCLDRSFRAQVFSCPACRYDLGRSYAMQVNQPLQTVLNQLFPGYGNGR
B2: CLOCK, O15516 (protein)
chain: MLFTVSCSKMSSIVDRDDSSIFDGLVEEDDKDKAKRVSRNKSEKKRRDQFNVLIKELGSMLPGNARKMDKSTVLQKSIDFLRKHKEITAQSDASEIRQDWKPTFLSNEEFTQLMLEALDGFFLAIMTDGSIIYVSESVTSLLEHLPSDLVDQSIFNFIPEGEHSEVYKILSTHLLESDSLTPEYLKSKNQLEFCCHMLRGTIDPKEPSTYEYVKFIGNFKSLNSVSSSAHNGFEGTIQRTHRPSYEDRVCFVATVRLATPQFIKEMCTVEEPNEEFTSRHSLEWKFLFLDHRAPPIIGYLPFEVLGTSGYDYYHVDDLENLAKCHEHLMQYGKGKSCYYRFLTKGQQWIWLQTHYYITYHQWNSRPEFIVCTHTVVSYAEVRAERRRELGIEESLPETAADKSQDSGSDNRINTVSLKEALERFDHSPTPSASSRSSRKSSHTAVSDPSSTPTKIPTDTSTPPRQHLPAHEKMVQRRSSFSSQSINSQSVGSSLTQPVMSQATNLPIPQGMSQFQFSAQLGAMQHLKDQLEQRTRMIEANIHRQQEELRKIQEQLQMVHGQGLQMFLQQSNPGLNFGSVQLSSGNSSNIQQLAPINMQGQVVPTNQIQSGMNTGHIGTTQHMIQQQTLQSTSTQSQQNVLSGHSQQTSLPSQTQSTLTAPLYNTMVISQPAAGSMVQIPSSMPQNSTQSAAVTTFTQDRQIRFSQGQQLVTKLVTAPVACGAVMVPSTMLMGQVVTAYPTFATQQQQSQTLSVTQQQQQQSSQEQQLTSVQQPSQAQLTQPPQQFLQTSRLLHGNPSTQLILSAAFPLQQSTFPQSHHQQHQSQQQQQLSRHRTDSLPDPSKVQPQ
B3: NFATC3, Q12968 (protein)
chain: MTTANCGAHDELDFKLVFGEDGAPAPPPPGSRPADLEPDDCASIYIFNVDPPPSTLTTPLCLPHHGLPSHSSVLSPSFQLQSHKNYEGTCEIPESKYSPLGGPKPFECPSIQITSISPNCHQELDAHEDDLQINDPEREFLERPSRDHLYLPLEPSYRESSLSPSPASSISSRSWFSDASSCESLSHIYDDVDSELNEAAARFTLGSPLTSPGGSPGGCPGEETWHQQYGLGHSLSPRQSPCHSPRSSVTDENWLSPRPASGPSSRPTSPCGKRRHSSAEVCYAGSLSPHHSPVPSPGHSPRGSVTEDTWLNASVHGGSGLGPAVFPFQYCVETDIPLKTRKTSEDQAAILPGKLELCSDDQGSLSPARETSIDDGLGSQYPLKKDSCGDQFLSVPSPFTWSKPKPGHTPIFRTSSLPPLDWPLPAHFGQCELKIEVQPKTHHRAHYETEGSRGAVKASTGGHPVVKLLGYNEKPINLQMFIGTADDRYLRPHAFYQVHRITGKTVATASQEIIIASTKVLEIPLLPENNMSASIDCAGILKLRNSDIELRKGETDIGRKNTRVRLVFRVHIPQPSGKVLSLQIASIPVECSQRSAQELPHIEKYSINSCSVNGGHEMVVTGSNFLPESKIIFLEKGQDGRPQWEVEGKIIREKCQGAHIVLEVPPYHNPAVTAAVQVHFYLCNGKRKKSQSQRFTYTPVLMKQEHREEIDLSSVPSLPVPHPAQTQRPSSDSGCSHDSVLSGQRSLICSIPQTYASMVTSSHLPQLQCRDESVSKEQHMIPSPIVHQPFQVTPTPPVGSSYQPMQTNVVYNGPTCLPINAASSQEFDSVLFQQDATLSGLVNLGCQPLSSIPFHSSNSGSTGHLLAHTPHSVHTLPHLQSMGYHCSNTGQRSLSSPVADQITGQPSSQLQPITYGPSHSGSATTASPAASHPLASSPLSGPPSPQLQPMPYQSPSSGTASSPSPATRMHSGQHSTQAQSTGQGGLSAPSSLICHSLCDPASFPPDGATVSIKPEPEDREPNFATIGLQDITLDDVNEIIGRDMSQISVSQGAGVSRQAPLPSPESLDLGRSDGL
B4: ZSCAN21, Q9Y5A6 (protein)
chain: MMTKVLGMAPVLGPRPPQEQVGPLMVKVEEKEEKGKYLPSLEMFRQRFRQFGYHDTPGPREALSQLRVLCCEWLRPEIHTKEQILELLVLEQFLTILPQELQAWVQEHCPESAEEAVTLLEDLERELDEPGHQVSTPPNEQKPVWEKISSSGTAKESPSSMQPQPLETSHKYESWGPLYIQESGEEQEFAQDPRKVRDCRLSTQHEESADEQKGSEAEGLKGDIISVIIANKPEASLERQCVNLENEKGTKPPLQEAGSKKGRESVPTKPTPGERRYICAECGKAFSNSSNLTKHRRTHTGEKPYVCTKCGKAFSHSSNLTLHYRTHLVDRPYDCKCGKAFGQSSDLLKHQRMHTEEAPYQCKDCGKAFSGKGSLIRHYRIHTGEKPYQCNECGKSFSQHAGLSSHQRLHTGEKPYKCKECGKAFNHSSNFNKHHRIHTGEKPYWCHHCGKTFCSKSNLSKHQRVHTGEGEAP
B5: GRHL1, Q9NZI5 (protein)
chain: MTQEYDNKRPVLVLQNEALYPQRRSYTSEDEAWKSFLENPLTAATKAMMSINGDEDSAAALGLLYDYYKVPRERRSSTAKPEVEHPEPDHSKRNSIPIVTEQPLISAGENRVQVLKNVPFNIVLPHGNQLGIDKRGHLTAPDTTVTVSIATMPTHSIKTETQPHGFAVGIPPAVYHPEPTERVVVFDRNLNTDQFSSGAQAPNAQRRTPDSTFSETFKEGVQEVFFPSDLSLRMPGMNSEDYVFDSVSGNNFEYTLEASKSLRQKPGDSTMTYLNKGQFYPITLKEVSSSEGIHHPISKVRSVIMVVFAEDKSREDQLRHWKYWHSRQHTAKQRCIDIADYKESFNTISNIEEIAYNAISFTWDINDEAKVFISVNCLSTDFSSQKGVKGLPLNIQVDTYSYNNRSNKPVHRAYCQIKVFCDKGAERKIRDEERKQSKRKVSDVKVPLLPSHKRMDITVFKPFIDLDTQPVLFIPDVHFANLQRGTHVLPIASEELEGEGSVLKRGPYGTEDDFAVPPSTKLARIEEPKRVLLYVRKESEEVFDALMLKTPSLKGLMEAISDKYDVPHDKIGKIFKKCKKGILVNMDDNIVKHYSNEDTFQLQIEEAGGSYKLTLTEI
B6: MYBL1, P10243 (protein)
chain: MAKRSRSEDEDDDLQYADHDYEVPQQKGLKKLWNRVKWTRDEDDKLKKLVEQHGTDDWTLIASHLQNRSDFQCQHRWQKVLNPELIKGPWTKEEDQRVIELVQKYGPKRWSLIAKHLKGRIGKQCRERWHNHLNPEVKKSSWTEEEDRIIYEAHKRLGNRWAEIAKLLPGRTDNSIKNHWNSTMRRKVEQEGYLQDGIKSERSSSKLQHKPCAAMDHMQTQNQFYIPVQIPGYQYVSPEGNCIEHVQPTSAFIQQPFIDEDPDKEKKIKELEMLLMSAENEVRRKRIPSQPGSFSSWSGSFLMDDNMSNTLNSLDEHTSEFYSMDENQPVSAQQNSPTKFLAVEANAVLSSLQTIPEFAETLELIESDPVAWSDVTSFDISDAAASPIKSTPVKLMRIQHNEGAMECQFNVSLVLEGKKNTCNGGNSEAVPLTSPNIAKFSTPPAILRKKRKMRVGHSPGSELRDGSLNDGGNMALKHTPLKTLPFSPSQFFNTCPGNEQLNIENPSFTSTPICGQKALITTPLHKETTPKDQKENVGFRTPTIRRSILGTTPRTPTPFKNALAAQEKKYGPLKIVSQPLAFLEEDIREVLKEETGTDLFLKEEDEPAYKSCKQENTASGKKVRKSLVLDNWEKEESGTQLLTEDISDMQSENRFTTSLLMIPLLEIHDNRCNLIPEKQDINSTNKTYTLTKKKPNPNTSKVVKLEKNLQSNCEWETVVYGKTEDQLIMTEQARRYLSTYTATSSTSRALIL
B7: PBX4, Q9BYU1 (protein)
chain: MAAPPRPAPSPPAPRRLDTSDVLQQIMAITDQSLDEAQARKHALNCHRMKPALFSVLCEIKEKTVVSIRGIQDEDPPDAQLLRLDNMLLAEGVCRPEKRGRGGAVARAGTATPGGCPNDNSIEHSDYRAKLSQIRQIYHSELEKYEQACREFTTHVTNLLQEQSRMRPVSPKEIERMVGAIHGKFSAIQMQLKQSTCEAVMTLRSRLLDARRKRRNFSKQATEVLNEYFYSHLNNPYPSEEAKEELARKGGLTISQVSNWFGNKRIRYKKNMGKFQEEATIYTGKTAVDTTEVGVPGNHASCLSTPSSGSSGPFPLPSAGDAFLTLRTLASLQPPPGGGCLQSQAQGSWQGATPQPATASPAGDPGSINSSTSN

Some of the results follow. Binding of human transcription factors and regulators to the viral nucleoprotein by AlphaScreen, crude cell-free proteins, amounts not normalised, one pass. Fold of the Venus control; higher = more signal. No active / inactive call. Single-pass screen; sequences are the whole Swiss-Prot entries looked up by name.

The target of this assay is nucleoprotein N of Crimean-Congo hemorrhagic fever virus. In words: AlphaScreen luminescence signal relative to Venus negative control (fold); higher = stronger binding to CCHFV N. As for the experimental part:
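AlphaScreen binding of cell-free made, FLAG-GST-tagged human transcription factors and regulators (crude translation products) to biotinylated N protein; signal as fold of the FLAG-GST-Venus control. One pass.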
A general note: In Alpha technology, singlet oxygen from a donor bead excites a nearby acceptor bead.
Take B1: the AlphaScreen luminescence signal turned out to be 13.1. For the molecule B2, the AlphaScreen luminescence signal came to 2.65. B3 had an AlphaScreen luminescence signal of 1.26. The value for B4 was 2.37; that for B5 was 2.74; that for B6 was 2.79. The result for B7 reads 1.95.
